Results on 91 molecules are retold here after PubChem BioAssay AID463173 (ICCB-Longwood Screening Facility, Harvard Medical School, 2010).

Among all 52,000 compounds or so, about 1,700 (3.3%) were called active. No stated cut-off is given here; in the data, active means survival mostly below about 52% (no sharp cut-off); inactive means mostly above about 56%. Some of the results follow.

The test system of this assay is Wild type. Description: S. aureus survival, RN4220 and DeltatarO strains – OD600, teichoic acid synthesis inhibitors, primary screen (AID 463173). The conditions noted are these: S. aureus RN4220 wild type/DeltatarO growth, OD600, 18 h, hits give low values, screened at 18.75 µg/mL (by protocol).
For the molecule `CCN(CC)c1nc2ccccc2nc1C(=O)Nc1ccc(C(C)=O)cc1`, the survival is inactive: 85%.
Consider `Cc1ccc(C)c(NC(=O)CN(C)S(=O)(=O)c2cccc3nsnc23)c1`, for which the survival was inactive: 83%.
The value for `CC(C)NC(=O)C1CC(c2ccccc2O)=NO1` (stereo unspecified) was inactive: 101%.
Turning to `Cc1cccc(N(C)c2nc3ccc(C(=O)c4ccccc4)cc3n3c(C)nnc23)c1`, the survival was inactive: 82%.
The value for `Cc1ccc(-n2nc(C(=O)Nc3ccc(F)cc3F)c3c4ccccc4n(C)c3c2=O)cc1` was inactive: 75%; that for `c1ccc(C2=NNC(c3nc4ccccc4[nH]3)C2)cc1` (stereo unspecified) was inactive: 108%; that for `Cc1ccc(C)c(NC(=O)Cn2c(=O)n(CCC(C)C)c(=O)c3cccnc32)c1` was inactive: 86%.
As for `CC(C)(C)C1CCc2c(sc(NC(=O)c3cc4ccccc4c(=O)o3)c2C(N)=O)C1` (stereo unspecified), the figure is inactive: 74%.
`NC(=O)CSc1nnc2c(n1)[nH]c1ccc(Cl)cc12`: the survival was inactive: 106%.
Regarding `O=C(NCCN1CCCCC1)Nc1c[nH]c2c(Cl)cccc2c1=O`, the survival was inactive: 112%.
Turning to `COc1ccccc1NC(=O)Cn1cc(S(=O)(=O)Cc2ccccc2)c2ccccc21`, the survival is inactive: 88%.
Regarding `CCCCCOc1ccc(/C=C/C(=O)Nc2sc(C)c(C)c2C(=O)OCC)cc1OC`, the survival is inactive: 132%.
As for `Cc1ccc(-c2csc(-c3nc(-c4ccc(Br)s4)cs3)n2)cc1`, the figure is inactive: 69%; as for `CCN(CC)CCNC(=O)Cn1ncc2c3ccccc3n(Cc3ccc(Cl)cc3)c2c1=O`, inactive: 130%.
Regarding `Cc1ccc(NC(=O)CSc2nc(=O)n(Cc3cccnc3)c3c2CCC3)cc1F`, the survival was inactive: 74%.
For `COc1ccc(NC(=O)Cn2nnc(C(=O)NCc3cccs3)c2N)cc1`, the survival is inactive: 81%.
The value for `COc1ccc(OCC(=O)Nc2ccc3oc(-c4ccncc4)nc3c2)cc1` was inactive: 99%; that for `CCc1cccc(C)c1NC(=O)c1cc(S(=O)(=O)N(Cc2ccc(C(=O)OC)cc2)Cc2ccc(OC)c(OC)c2)ccc1F` was inactive: 88%.
Regarding `Cc1ccccc1Oc1nc2ccccn2c(=O)c1/C=C(\C#N)c1nc2ccccc2[nH]1`, the survival was inactive: 72%.
Turning to `COc1ccc(Cc2nc3ccc(C(=O)NCc4ccccc4C)cc3o2)cc1`, the survival is inactive: 80%.
For the molecule `COc1ccc(NC(=O)CN2C(=O)CC(c3ccc(C)c(C)c3)=Nc3ccccc32)cc1OC`, the survival was inactive: 76%.
As for `CCC(CC)C(=O)Nc1ccc2nc(SCC(=O)N3CCCC3)sc2c1`, the survival is inactive: 110%.
With `CN(C)c1ccc(/C=C/c2nc(-c3ccccc3O)n(-c3ccccc3)n2)cc1`, the survival was inactive: 46%.
Regarding `O=C(Nc1cccc(NC(=O)C2CCCO2)c1)c1ccco1` (stereo unspecified), the survival is inactive: 102%.
As for `COc1cccc(C(=O)N(Cc2cccnc2)Cc2cc3cc(C)cc(C)c3[nH]c2=O)c1`, the survival was inactive: 105%.
As to `Cc1ccc2nc(-c3cccs3)c(Nc3c(C)cccc3C)n2c1`, the survival was inactive: 36%.
For `COc1cccc(-c2cc(C#N)on2)c1OC`, the survival is inactive: 89%.
On to `NC(=S)C(=S)N1CCOCC1`, for which the survival is inactive: 116%.
For `CC(C)CCNC(=O)CN1C(=O)CSc2ccc(S(=O)(=O)N3CCC(C)CC3)cc21`, the survival is inactive: 59%.
As for `COc1ccc(NC(=O)[C@H]2O[C@@H]3OC(C)(C)O[C@@H]3[C@H]3OC(C)(C)O[C@H]32)c(OC)c1`, the figure is inactive: 104%; as for `Cc1c(C)n(CC(O)CNCc2ccco2)c2ccccc12` (stereo unspecified), inactive: 104%.
With `CCOC(=O)C1CCCN(c2nc3c(S(=O)(=O)c4ccc(CC)cc4)nnn3c3ccsc23)C1` (stereo unspecified), the survival is inactive: 80%.
As for `CCCCc1noc(-c2ccc(OC(=O)c3ccccc3)cc2)n1`, the figure is inactive: 94%.
The value for `Cc1ccc2c(c1)c1c(c(=O)n(-c3cccc(Cl)c3)c(=O)n1CC(=O)NCC1CCCO1)n2C` (stereo unspecified) was inactive: 71%; that for `Cc1c(C(=O)NCc2ccc(F)cc2)oc2ccc(S(=O)(=O)N3CCCCC3)cc12` was inactive: 84%.
Consider `Cn1c(=O)[nH]c(=O)c2c1nc(N1CCOCC1)n2Cc1ccccc1`, for which the survival is inactive: 144%.
For `CCc1cccc(NC(=O)CCc2nc3cccnc3n2Cc2ccc(OC)cc2)c1`, the survival is inactive: 86%.
`CCOC(=O)Cc1ccc(NC(=O)Nc2c[nH]c(=O)[nH]c2=O)cc1`: the survival is inactive: 96%.
Turning to `Oc1c(C(c2ccc(F)cc2)N2CCOCC2)sc2nc(-c3ccco3)nn12` (stereo unspecified), the survival was inactive: 45%.
With `O=C(Cn1ncc2c([nH]c3ccccc32)c1=O)Nc1cccc(C(F)(F)F)c1`, the survival is inactive: 76%.
With `Cc1nc(NN)nc(NCc2ccccc2)n1`, the survival was inactive: 109%.
As to `CC(=O)N1CCc2cc(S(=O)(=O)NC(Cc3ccccc3)C(=O)Nc3cccc(C)c3)ccc21` (stereo unspecified), the survival was inactive: 125%.
With `Cc1ccc(CNCc2ccccc2)s1`, the survival is inactive: 119%.
In the case of `CCc1ccc(-n2c(=O)c3c4c(sc3n(Cc3ccc(C)cc3)c2=O)CCC4)cc1`, the survival was inactive: 104%.
In the case of `CCc1ccc(N(CC(=O)NCC2CCCO2)S(C)(=O)=O)cc1` (stereo unspecified), the survival was inactive: 112%.
With `Cc1cc(C)cc(N2CC(c3nc(-c4cccc(Cl)c4)no3)CC2=O)c1` (stereo unspecified), the survival is inactive: 32%.
Regarding `COc1ccc(CCNc2nccn(-c3ccc(C)c(C)c3)c2=O)cc1OC`, the survival was inactive: 83%.
On to `Cc1ccccc1CN1c2ccccc2S(=O)(=O)c2ccccc21`, for which the survival is inactive: 73%.
The value for `O=C1C(Nc2ccccc2)=CC(c2ccc(Br)cc2)N1c1ccccc1` (stereo unspecified) was inactive: 78%.
Regarding `Cc1cc(-c2ccccc2)n2ncc(C#N)c2n1`, the survival was inactive: 109%.
In the case of `COc1ccc(N2CCN(C(CNC(=O)C(=O)NCCc3ccccc3)c3cccnc3)CC2)cc1` (stereo unspecified), the survival is inactive: 84%.
For `Cc1ccc(CN2CCC(CNC(=O)Nc3cccc(Cl)c3C)C2)cc1` (stereo unspecified), the survival is inactive: 88%.
`Cc1ccc(CCNC(=O)NCc2noc3ccccc23)cc1`: the survival was inactive: 116%.
Take `O=C(NCc1ccccc1)c1ccc2nc(CCc3ccccc3)oc2c1`: the survival was active: -3%.
Take `COc1ccc(C)cc1NC(=O)NCc1cccn1Cc1ccccc1`: the survival is inactive: 98%.
For `COc1ccccc1NC(=O)CN(C)S(=O)(=O)c1ccc2c(c1)c(=O)n(C)c(=O)n2C`, the survival is inactive: 81%.
As for `CCOCCCN(C(=O)Nc1ccc(Cl)cc1)C1CCN(C(C)=O)CC1`, the survival is inactive: 51%.
Turning to `Cc1c(CNC2CCCCCC2)c(C(=O)O)c(C)n1Cc1ccc(F)cc1Cl`, the survival was inactive: 88%.
`O=C(COc1ccc(Cl)cc1)Nc1nnc2n1CCS2`: the survival was inactive: 146%.
`COc1ccc(C)cc1NC(=O)CSc1nc2ccccc2nc1N1CCOCC1`: the survival is inactive: 72%.
As for `CC1CCCN(S(=O)(=O)c2ccc3[nH]c(=O)cc(C(=O)NCCc4ccc(Cl)cc4)c3c2)C1` (stereo unspecified), the survival is inactive: 97%.
For the molecule `COc1cc(OC)cc(-c2nc(-c3cccc(C)c3)no2)c1`, the survival is active: -15%.
As for `CN1/C(=C2/SC(=S)N(N)C2=O)Sc2ccccc21`, the figure is inactive: 106%; as for `CC(C)c1ccc(NC(=O)c2ccc(F)c(S(=O)(=O)N3CCCCCC3)c2)cc1`, inactive: 55%.
`O=C1CCSc2ccc(S(=O)(=O)Nc3ccc(Cl)c(C(F)(F)F)c3)cc2N1`: the survival is inactive: 81%.
The value for `Cn1c(SCC(=O)NC(C)(C)C)nnc1-c1ccccc1` was inactive: 99%.
Consider `COc1ccc(S(=O)(=O)NCCc2csc3nc(-c4ccc(OC)c(OC)c4)nn23)cc1C`, for which the survival was inactive: 69%.
Regarding `CCc1ccccc1NC(=O)C1CCN(S(=O)(=O)c2ccc3[nH]c(=O)ccc3c2)CC1`, the survival is inactive: 128%.
For the molecule `CC(C)(C)c1ccc(C(=O)Nc2cc(-c3nc4ccccc4o3)ccc2Cl)cc1`, the survival is active: 2%.
Take `CCc1ccccc1NC(=O)c1ccc2c(c1)CCN2S(C)(=O)=O`: the survival is inactive: 88%.
On to `CCCCn1c(=O)c2oc3ccccc3c2n(CC(=O)Nc2cccc(Cl)c2C)c1=O`, for which the survival was inactive: 82%.
In the case of `COc1cc(NC(=O)c2sc3nc4n(c(=O)c3c2C)CCCCC4)cc(OC)c1OC`, the survival is inactive: 80%.
The value for `Cc1noc(C)c1S(=O)(=O)N1CCC(C(=O)Nc2ccc(Br)cc2)CC1` was inactive: 90%.
In the case of `COc1ccc(Cc2nc3ccc(C(=O)NCc4ccc(OC)cc4OC)cc3o2)cc1`, the survival is inactive: 83%.
On to `COc1ccc2nc(Cl)c(CNCCN(C)C)c(N3CCCCC3)c2c1`, for which the survival was inactive: 110%.
Regarding `COc1ccc(CNC(=O)c2nc(Cn3nc(C)c(Br)c3C)no2)cc1OC`, the survival is inactive: 72%.
Regarding `CCN(C(=O)c1cc2cc3ccc(OC)cc3nc2o1)c1cccc(C)c1`, the survival was active: 0%.
For `COc1ccc(N2CCN(S(=O)(=O)c3c(C)[nH]c(=O)[nH]c3=O)CC2)cc1`, the survival is inactive: 69%.
In the case of `O=S(=O)(NC1CC1)c1ccc(S(=O)(=O)N2CCCc3ccccc32)cc1`, the survival was inactive: 110%.
The value for `O=C(C1CCN(S(=O)(=O)c2ccc3c(c2)OCCO3)CC1)N1CCN(c2nc3ccccc3s2)CC1` was inactive: 101%; that for `CC(=O)c1ccc(Oc2nc(C)nc3c2oc2ccccc23)cc1` was inactive: 90%; that for `COc1ccc(-c2nc(C(=O)Nc3ccc(C(C)=O)cc3)nn2-c2cccc(Cl)c2)cc1` was inactive: 53%.
The value for `COc1ccc(OC)c(-c2csc(-c3c(N)c(C(=O)c4ccccc4)n4ccccc34)n2)c1` was inactive: 89%.
With `COc1ccc(CN(Cc2ccco2)c2cnc(S(C)(=O)=O)nc2C(=O)Nc2ccc(F)cc2)cc1`, the survival is inactive: 78%.
Turning to `COc1ccc(S(=O)(=O)N(CC(=O)Nc2cccc(C(F)(F)F)c2)c2ccc(C)cc2)cc1`, the survival was inactive: 73%.
As for `Cn1c(=O)n(C/C=C/c2ccccc2)c(=O)c2c1nc1n2CCN1c1ccccc1`, the survival is inactive: 114%.
The value for `CCCCOc1ccc(CNC(=O)C2COc3ccc(OC)cc3C2)cc1` (stereo unspecified) was inactive: 128%; that for `CCOc1ccc(C(=O)c2cn(CC(=O)Nc3ccc4c(c3)OCO4)c3ccc(OCC)cc3c2=O)cc1` was inactive: 77%.
With `COc1ccc(-n2c(=O)c3c(c4cc(OC)ccc4n3C)n(Cc3cc(C)ccc3C)c2=O)cc1`, the survival is inactive: 89%.
As for `N#Cc1cnc(SCCc2ccccc2)nc1N`, the survival was inactive: 105%.
The value for `OCc1ccccc1CNc1ccc(F)cc1` was inactive: 106%.
